# Test results from the supplement of paper PMC12217912.
# This is one part of the list. Sequences were assembled here from the parent chain. Inactive controls read about 0.05.
# B1: TEV protease; numbered along this chain (parent)
# chain: MGESLFKGPRDYNPISSSICHLTNESDGHTTSLYGIGFGPFIITNKHLFRRNNGTLVVQSLHGVFKVKDTTTLQQHLVDGRDMIIIRMPKDFPPFPQKLKFREPQREERICLVTTNFQTKSMSSMVSDTSCTFPSGDGIFWKHWIQTKDGQCGSPLVSTRDGFIVGIHSASNFTNTNNYFTSVPKNFMELLTNQEAQQWVSGWRLNADSVLWGGHKVFMVKPEEPFQPVKEATQL
# Variants of: B1
# Experiment: raw area under fraction-flipped curve 0-4 h after induction (AUC4h, not background-subtracted), DNA-recorder readout of cleavage of the substrate (dimensionless); higher = more cleavage of the substrate by the protease variant
# Settings: temperature: 34 °C; time window: 0-4 h after rhamnose induction
# Procedure: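 In vivo DNA recorder in E. coli TOP10(DE3) ΔrhaA at 34 °C. Each TEVp single-site mutant (parent TEVp 0) is paired with a single-site variant of the 7-mer TEVs (canonical ENLYFQ|S). The substrate sits between flexible linkers in a Bxb1-sfGFP-TEVs-SsrA fusion, so cleavage stabilises Bxb1 and speeds flipping of a recombination array, read by NGS. The value is the raw area under the fraction-flipped curve over 0-4 h after rhamnose induction (AUC4h), with ≥20 reads per time point. It is not background-subtracted; inactive controls average about 0.047.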
# 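Also: Bxb1 expression induced with 0.2% (w/v) L-rhamnose at OD600 near 0.5, cultures sampled hourly, flipped fraction per protease–substrate barcode pair counted by paired-end Illumina sequencing.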
Variant,area with substrate EALYFQS,area with substrate ECLYFQS,area with substrate EDLYFQS,area with substrate EELYFQS,area with substrate EGLYFQS,area with substrate EHLYFQS,area with substrate EILYFQS,area with substrate EKLYFQS,area with substrate EMLYFQS,area with substrate EPLYFQS,area with substrate EQLYFQS,area with substrate ERLYFQS,area with substrate ESLYFQS,area with substrate ETLYFQS,area with substrate EVLYFQS,area with substrate EYLYFQS,area with substrate EFLYFQS,area with substrate ELLYFQS,area with substrate EWLYFQS
MGESLFKGPRDYNPISSSICHLTNESDIHTTSLYGIGFGPFIITNKHLFRRNNGTLVVQSLHGVFKVKDTTTLQQHLVDGRDMIIIRMPKDFPPFPQKLKFREPQREERICLVTTNFQTKSMSSMVSDTSCTFPSGDGIFWKHWIQTKDGQCGSPLVSTRDGFIVGIHSASNFTNTNNYFTSVPKNFMELLTNQEAQQWVSGWRLNADSVLWGGHKVFMVKPEEPFQPVKEATQL [G28I],0.0873,0.0935,0.0812,0.0795,0.0641,0.0815,0.0769,0.0673,0.105,0.114,0.0985,0.0799,0.079,0.0779,0.0709,0.0977,,,
MGESLFKGPRDYNPISSSICHLTNESDDHTTSLYGIGFGPFIITNKHLFRRNNGTLVVQSLHGVFKVKDTTTLQQHLVDGRDMIIIRMPKDFPPFPQKLKFREPQREERICLVTTNFQTKSMSSMVSDTSCTFPSGDGIFWKHWIQTKDGQCGSPLVSTRDGFIVGIHSASNFTNTNNYFTSVPKNFMELLTNQEAQQWVSGWRLNADSVLWGGHKVFMVKPEEPFQPVKEATQL [G28D],0.103,0.0894,0.113,0.115,,0.0993,0.09,0.0893,0.133,,0.108,0.0821,0.113,0.106,0.0981,0.104,0.0893,0.0947,0.0879
MGESLFKGPRDYNPISSSICHLTNESWGHTTSLYGIGFGPFIITNKHLFRRNNGTLVVQSLHGVFKVKDTTTLQQHLVDGRDMIIIRMPKDFPPFPQKLKFREPQREERICLVTTNFQTKSMSSMVSDTSCTFPSGDGIFWKHWIQTKDGQCGSPLVSTRDGFIVGIHSASNFTNTNNYFTSVPKNFMELLTNQEAQQWVSGWRLNADSVLWGGHKVFMVKPEEPFQPVKEATQL [D27W],0.109,0.0827,0.0901,,0.0954,0.0754,0.0731,0.0955,,,0.109,0.0923,0.0901,,0.117,0.085,,0.0712,
MGESLFKGPRDYNPISSSICHLTNESCGHTTSLYGIGFGPFIITNKHLFRRNNGTLVVQSLHGVFKVKDTTTLQQHLVDGRDMIIIRMPKDFPPFPQKLKFREPQREERICLVTTNFQTKSMSSMVSDTSCTFPSGDGIFWKHWIQTKDGQCGSPLVSTRDGFIVGIHSASNFTNTNNYFTSVPKNFMELLTNQEAQQWVSGWRLNADSVLWGGHKVFMVKPEEPFQPVKEATQL [D27C],0.104,0.0823,0.113,0.121,,0.102,0.0526,0.101,0.113,0.0666,0.12,0.12,0.0892,,0.108,,,,0.0852
MGESLFKGPRDYNPISSSICHLTNNSDGHTTSLYGIGFGPFIITNKHLFRRNNGTLVVQSLHGVFKVKDTTTLQQHLVDGRDMIIIRMPKDFPPFPQKLKFREPQREERICLVTTNFQTKSMSSMVSDTSCTFPSGDGIFWKHWIQTKDGQCGSPLVSTRDGFIVGIHSASNFTNTNNYFTSVPKNFMELLTNQEAQQWVSGWRLNADSVLWGGHKVFMVKPEEPFQPVKEATQL [E25N],0.13,0.114,0.147,0.133,,0.129,0.105,0.105,0.117,0.116,0.129,0.11,0.132,0.114,0.115,0.13,,,0.0971
MGESLFKGPRDYNPISSSICHLTNYSDGHTTSLYGIGFGPFIITNKHLFRRNNGTLVVQSLHGVFKVKDTTTLQQHLVDGRDMIIIRMPKDFPPFPQKLKFREPQREERICLVTTNFQTKSMSSMVSDTSCTFPSGDGIFWKHWIQTKDGQCGSPLVSTRDGFIVGIHSASNFTNTNNYFTSVPKNFMELLTNQEAQQWVSGWRLNADSVLWGGHKVFMVKPEEPFQPVKEATQL [E25Y],0.114,0.0886,0.133,,0.106,0.0983,0.119,0.105,0.113,0.0991,0.123,0.102,0.104,0.102,0.111,0.0963,0.0933,0.0908,
MGESLFKGPRDYNPISSSICHLTNRSDGHTTSLYGIGFGPFIITNKHLFRRNNGTLVVQSLHGVFKVKDTTTLQQHLVDGRDMIIIRMPKDFPPFPQKLKFREPQREERICLVTTNFQTKSMSSMVSDTSCTFPSGDGIFWKHWIQTKDGQCGSPLVSTRDGFIVGIHSASNFTNTNNYFTSVPKNFMELLTNQEAQQWVSGWRLNADSVLWGGHKVFMVKPEEPFQPVKEATQL [E25R],0.123,0.101,0.153,0.128,0.0912,0.118,0.0987,0.119,0.0359,0.0853,0.124,0.1,0.12,0.115,0.147,,,0.0986,0.0924
MGESLFKGPRDYNPISSSICHLTNWSDGHTTSLYGIGFGPFIITNKHLFRRNNGTLVVQSLHGVFKVKDTTTLQQHLVDGRDMIIIRMPKDFPPFPQKLKFREPQREERICLVTTNFQTKSMSSMVSDTSCTFPSGDGIFWKHWIQTKDGQCGSPLVSTRDGFIVGIHSASNFTNTNNYFTSVPKNFMELLTNQEAQQWVSGWRLNADSVLWGGHKVFMVKPEEPFQPVKEATQL [E25W],0.129,0.115,0.126,,0.0852,0.0753,0.0884,0.107,0.0989,,0.116,,0.113,0.106,0.0529,0.101,,0.0804,0.0864
